According to paper PMC4336329 (PLoS ONE, 2015):
In all, about 310,000 compounds went through this assay and about 2,200 (0.71%) showed an effect of 50% or more. The effect is printed as a negative number. The list shows a part of the results.

Molecular target: human ether-à-go-go-related gene (hERG) potassium channel (human, UniProt Q12809)
Experiment: primary screen, population patch clamp on CHO cells stably expressing hERG

Chain of human ether-à-go-go-related gene (hERG) potassium channel (Q12809 whole entry, looked up): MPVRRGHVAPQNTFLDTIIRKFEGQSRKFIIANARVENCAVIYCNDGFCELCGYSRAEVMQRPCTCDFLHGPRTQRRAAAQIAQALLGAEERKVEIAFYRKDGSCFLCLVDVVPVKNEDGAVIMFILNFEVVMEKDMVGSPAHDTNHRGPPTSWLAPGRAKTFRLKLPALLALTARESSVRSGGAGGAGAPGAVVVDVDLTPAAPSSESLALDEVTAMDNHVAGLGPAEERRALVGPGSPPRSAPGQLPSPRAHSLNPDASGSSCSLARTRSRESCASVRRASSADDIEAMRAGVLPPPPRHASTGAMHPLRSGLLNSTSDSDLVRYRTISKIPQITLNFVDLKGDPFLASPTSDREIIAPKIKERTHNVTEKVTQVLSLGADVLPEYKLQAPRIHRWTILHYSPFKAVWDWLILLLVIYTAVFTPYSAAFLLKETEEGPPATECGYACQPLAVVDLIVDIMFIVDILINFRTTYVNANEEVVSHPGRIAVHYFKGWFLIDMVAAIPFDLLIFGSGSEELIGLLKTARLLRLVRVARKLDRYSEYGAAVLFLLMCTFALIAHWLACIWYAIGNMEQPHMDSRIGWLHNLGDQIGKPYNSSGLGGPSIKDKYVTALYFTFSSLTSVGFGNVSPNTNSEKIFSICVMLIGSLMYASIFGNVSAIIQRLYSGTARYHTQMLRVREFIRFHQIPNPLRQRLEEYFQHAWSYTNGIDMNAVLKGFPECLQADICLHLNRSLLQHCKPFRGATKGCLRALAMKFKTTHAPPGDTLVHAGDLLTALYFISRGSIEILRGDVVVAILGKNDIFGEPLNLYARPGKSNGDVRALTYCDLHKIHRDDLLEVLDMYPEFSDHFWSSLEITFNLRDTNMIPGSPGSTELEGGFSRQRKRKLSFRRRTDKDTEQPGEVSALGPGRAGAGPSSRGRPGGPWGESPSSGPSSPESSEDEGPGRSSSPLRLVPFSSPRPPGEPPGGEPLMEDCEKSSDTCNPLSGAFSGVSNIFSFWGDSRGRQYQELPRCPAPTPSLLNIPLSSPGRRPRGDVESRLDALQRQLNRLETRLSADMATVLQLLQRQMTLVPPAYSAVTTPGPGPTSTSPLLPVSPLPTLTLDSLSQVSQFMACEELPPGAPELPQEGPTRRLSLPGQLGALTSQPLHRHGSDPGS

Which “hERG current change (%, negative = inhibition) at 1uM” value does the source give for `O=C(NC1=NCCS1)c1ccccc1OCc1ccccc1Cl` here?
Its value is 8.85%.

How did the “hERG current change (%, negative = inhibition) at 1uM” value turn out when `CC1=NN(c2ccccc2)C(=O)C1/C=C1\NC(=S)NC1=O` (stereo not shown) was run?
The value was 20.9%.

With `NC(=O)CC(NC(=O)c1ccccc1)c1ccc(NCCN2CCOCC2)c([N+](=O)[O-])c1` (stereo not shown) as the compound, how does the “hERG current change (%, negative = inhibition) at 1uM” value read?
Its value is 7.41%.

With `Cc1ccc(-c2csc(NC(=O)Cn3[nH]c(=O)c4ccccc4c3=O)n2)cc1` as the compound, how does the “hERG current change (%, negative = inhibition) at 1uM” value read?
The value was 12.2%.

Which “hERG current change (%, negative = inhibition) at 1uM” value does the source give for `CCCc1cc2c(cc1NC(=O)c1ccccc1Cl)OCO2` here?
Its value is 18.4%.

Which “hERG current change (%, negative = inhibition) at 1uM” value does the source give for `CC(C)c1onc(C(=O)Nc2cccc(Cl)c2)c1[N+](=O)[O-]` here?
The value was 10.3%.

For `COc1ccc(/C=C(\C#N)C(=O)c2c(C)[nH]c3ccccc23)cc1OC`, which “hERG current change (%, negative = inhibition) at 1uM” value is on record?
The value was 9.74%.

Which “hERG current change (%, negative = inhibition) at 1uM” value does the source give for `Fc1ccc2c(c1)C(c1ccncc1)=NNC(c1ccc(Cl)cc1)=N2` here?
The value was 0.45%.

For `Cc1cccc(-n2cnc3sc(C)c(C)c3c2=O)c1`, which “hERG current change (%, negative = inhibition) at 1uM” value is on record?
The value was 10.3%.

For `Cc1c(C)n(CCN(C)C)c2ccc(C(=O)OCCN(C)C)cc12.Cl`, which “hERG current change (%, negative = inhibition) at 1uM” value is on record?
Its value is 4.47%.

How did the “hERG current change (%, negative = inhibition) at 1uM” value turn out when `COc1ccc(C(O)(CCc2ccccc2)CCN2CCCCC2)cc1.Cl` (stereo not shown) was run?
Its value is 4.09%.

How did the “hERG current change (%, negative = inhibition) at 1uM” value turn out when `Fc1c(F)c(F)c(N=Cc2ccc3ncccc3c2)c(F)c1F` was run?
The value was 7.15%.

`CS(=O)(=O)n1nc(-c2ccc(Cl)cc2)nc1SCc1ccccc1` was tested. Which “hERG current change (%, negative = inhibition) at 1uM” value did it give?
The value was -15.9%.

For `COCCN(CCOC)S(=O)(=O)c1ccc(C(=O)Nc2c(C)n(C)n(-c3ccccc3)c2=O)cc1`, which “hERG current change (%, negative = inhibition) at 1uM” value is on record?
The value was 7.95%.

For `Cc1ccc(C)c(Cn2c3ccccc3c3cnn(CC(=O)NCc4ccccn4)c(=O)c32)c1`, which “hERG current change (%, negative = inhibition) at 1uM” value is on record?
The value was 17.4%.

For `CC1(C)NC(C)(C)C(O)(C(N)=O)C1=O` (stereo not shown), which “hERG current change (%, negative = inhibition) at 1uM” value is on record?
Its value is -0.542%.

How did the “hERG current change (%, negative = inhibition) at 1uM” value turn out when `O=C(NNc1nc2c(F)cccc2s1)C1COc2ccccc2O1` (stereo not shown) was run?
The value was 13.7%.

For `Cc1cccc(N(CC(=O)NCC2CCCO2)C(=O)CNS(=O)(=O)c2ccc(Cl)cc2)c1` (stereo not shown), which “hERG current change (%, negative = inhibition) at 1uM” value is on record?
Its value is 8.75%.

With `c1ccc(CSc2nnc(Cc3ccccn3)o2)cc1` as the compound, how does the “hERG current change (%, negative = inhibition) at 1uM” value read?
The value was 21%.

`O=C(Nn1cnnc1)c1cc(-c2cccc(Br)c2)nc2ccccc12` was tested. Which “hERG current change (%, negative = inhibition) at 1uM” value did it give?
The value was 12.8%.

With `COc1cc(C(=O)Nc2nnc(C3CC3)s2)ccc1OCc1c(C)noc1C` as the compound, how does the “hERG current change (%, negative = inhibition) at 1uM” value read?
The value was 9.86%.

With `CCCOc1ccc(C(=O)NC(=S)NNC(=O)c2c(-c3ccccc3)noc2C)cc1` as the compound, how does the “hERG current change (%, negative = inhibition) at 1uM” value read?
The value was 9.11%.

For `Cc1csc2nc(O)c(C(=O)NC3CCCCC3C)c(=O)n12` (stereo not shown), which “hERG current change (%, negative = inhibition) at 1uM” value is on record?
Its value is -16.1%.

For `COc1ccc(Cl)cc1N(CC(=O)NC(C(C)C)C(C)C)S(C)(=O)=O`, which “hERG current change (%, negative = inhibition) at 1uM” value is on record?
The value was 5.31%.

Which “hERG current change (%, negative = inhibition) at 1uM” value does the source give for `Cc1ccccc1CC1S/C(=N/N=C/c2ccco2)NC1=O` (stereo not shown) here?
Its value is 14.5%.

How did the “hERG current change (%, negative = inhibition) at 1uM” value turn out when `c1ccc(-n2ncc3c(NCc4ccc5c(c4)OCO5)ncnc32)cc1` was run?
The value was -3.43%.

With `C=CCN1c2ccccc2[C@]23C[C@@H](C(=O)OC)N(C(=O)NCCC)C2=NC(C(=O)OC)=C(C(=O)OC)[C@H]13` as the compound, how does the “hERG current change (%, negative = inhibition) at 1uM” value read?
The value was 16.2%.

With `CC(=O)N1CCOCCOCCN(C(C)=O)CCOCC1` as the compound, how does the “hERG current change (%, negative = inhibition) at 1uM” value read?
Its value is 17.2%.

Which “hERG current change (%, negative = inhibition) at 1uM” value does the source give for `Cc1cccc(C)c1NC(=O)COC(=O)c1ccc2c(c1)OCO2` here?
Its value is 2.63%.

Which “hERG current change (%, negative = inhibition) at 1uM” value does the source give for `COc1ccc(S(=O)(=O)NN=C2CCCC2)cc1` here?
The value was 4.71%.

How did the “hERG current change (%, negative = inhibition) at 1uM” value turn out when `Cc1csc(Sc2ccc([N+](=O)[O-])cc2C(=O)OCC(=O)NC(=O)NC(C)(C)C)n1` was run?
The value was 11.8%.

`CCO.N#CC1=C(N)OC2=C(CC/C2=C\c2ccccc2Cl)C1c1ccccc1Cl` (stereo not shown) was tested. Which “hERG current change (%, negative = inhibition) at 1uM” value did it give?
The value was 4.4%.

With `COc1ccc2c(c1)nc(CN1CCN(CCO)CC1)n2C` as the compound, how does the “hERG current change (%, negative = inhibition) at 1uM” value read?
Its value is 16.6%.

`O=C(Nc1cccc(S(=O)(=O)Nc2ccc(Cl)cc2)c1)c1cc2c(s1)CCCC2` was tested. Which “hERG current change (%, negative = inhibition) at 1uM” value did it give?
The value was 5.26%.

How did the “hERG current change (%, negative = inhibition) at 1uM” value turn out when `COc1ccc(/C=N/Nc2ncnc3sc(C)c(C)c23)cc1` was run?
The value was 13.3%.

`O=C(Nc1ccccc1[N+](=O)[O-])C1(c2ccccc2)CCOCC1` was tested. Which “hERG current change (%, negative = inhibition) at 1uM” value did it give?
Its value is 1.47%.

With `CCS(=O)c1ccccc1C(=O)OCC(=O)Nc1cccc(S(=O)(=O)N2CCCCC2)c1` (stereo not shown) as the compound, how does the “hERG current change (%, negative = inhibition) at 1uM” value read?
Its value is 9.4%.

For `CCCCn1c(=O)[nH]c(=O)c2c1nc(-c1ccc(OC(F)F)c(OC)c1)n2C`, which “hERG current change (%, negative = inhibition) at 1uM” value is on record?
The value was 14.9%.

`O=C(O[C@@H]1[C@H](Cc2ccccc2)NS(=O)(=O)[C@H]2C[C@@H]3C=C[C@]12O3)c1ccccc1Br` was tested. Which “hERG current change (%, negative = inhibition) at 1uM” value did it give?
Its value is 17.6%.

How did the “hERG current change (%, negative = inhibition) at 1uM” value turn out when `Cc1cc(C)n(-c2ccc(NC(=O)C3CCCCN3C(=O)c3ccoc3)cc2)n1` (stereo not shown) was run?
The value was 4.95%.

For `Cc1nn2c(N3CCOCC3)cc(C(C)C)nc2c1-c1ccccc1`, which “hERG current change (%, negative = inhibition) at 1uM” value is on record?
The value was 7.26%.

Which “hERG current change (%, negative = inhibition) at 1uM” value does the source give for `COc1ccc(OC)c(NC(=O)C2CCN(c3cc(-c4ccccc4)nc4ncnn34)CC2)c1` here?
Its value is -2.67%.

`O=C(CN1C(=O)NC2(CCOc3ccccc32)C1=O)Nc1ccc(F)c(F)c1F` (stereo not shown) was tested. Which “hERG current change (%, negative = inhibition) at 1uM” value did it give?
Its value is 7.15%.

How did the “hERG current change (%, negative = inhibition) at 1uM” value turn out when `Nc1cc(=O)[nH]c(SCC(=O)N2CCc3ccccc3C2)n1` was run?
Its value is 10%.

`CCCC(=O)CN1C(=O)C2(OCCO2)c2ccccc21` was tested. Which “hERG current change (%, negative = inhibition) at 1uM” value did it give?
The value was 8.5%.

How did the “hERG current change (%, negative = inhibition) at 1uM” value turn out when `COc1cc(/C=N/NC(=O)Cc2csc(C)n2)ccc1OCC(C)C` was run?
The value was 6.66%.

How did the “hERG current change (%, negative = inhibition) at 1uM” value turn out when `CCc1nc2ccccc2n1CC(O)COCC1CC=CCC1` (stereo not shown) was run?
Its value is 1.5%.

How did the “hERG current change (%, negative = inhibition) at 1uM” value turn out when `O=C(NCc1cccnc1)/C(=C/c1ccc(-c2cccc(C(F)(F)F)c2)o1)NC(=O)c1ccccc1` was run?
The value was -18.4%.

How did the “hERG current change (%, negative = inhibition) at 1uM” value turn out when `O=C(CC(=O)N1CCN(c2ccccn2)CC1)Nc1ccc2nc3n(c(=O)c2c1)CCCCC3` was run?
Its value is 2.67%.

Which “hERG current change (%, negative = inhibition) at 1uM” value does the source give for `CCCCNC(=S)N(CCN(C)C)Cc1cc2cc3c(cc2[nH]c1=O)OCCO3` here?
The value was 10.8%.

Which “hERG current change (%, negative = inhibition) at 1uM” value does the source give for `NNC(=O)CNC(=O)c1cccc(Br)c1` here?
The value was -12.4%.

For `Cc1coc2cc3oc(=O)ccc3cc12`, which “hERG current change (%, negative = inhibition) at 1uM” value is on record?
The value was 7.21%.

For `COc1ccc(-c2cnc(N)nc2-c2ccc(OC)cc2)cc1`, which “hERG current change (%, negative = inhibition) at 1uM” value is on record?
The value was 17.5%.

Which “hERG current change (%, negative = inhibition) at 1uM” value does the source give for `CCn1c2ccccc2c2nnc(NN)nc21` here?
Its value is 8.14%.

With `CCCn1c(=O)c2ccccc2n2c(SCC(=O)NCc3cccs3)nnc12` as the compound, how does the “hERG current change (%, negative = inhibition) at 1uM” value read?
Its value is 6.65%.
